Data published in paper PMC6220479 (Journal for Immunotherapy of Cancer, 2018).

What was measured:
Conditions in all cases: both partners purified
[1] = molecular target: immobilized CD40 (UniProt P25942 21-277, construct not described; extracellular domain taken from UniProt features, immobilized); assay: not stated; CD47 or CD40 immobilized
[2] = molecular target: CD47 (UniProt Q08722, construct not described; N-terminal extracellular IgV domain taken from UniProt features; native N-terminal pyroglutamate and N-glycans possible); assay: not stated; CD47 or CD40 immobilized
[3] = molecular target: T1, immobilized PD-L2 (UniProt Q9BQ51 20-220); assay: not stated; PD-L1, PD-L2 or OX40 immobilized
T1 construct: PD-L2; construct not described
T1 sequence (looked up): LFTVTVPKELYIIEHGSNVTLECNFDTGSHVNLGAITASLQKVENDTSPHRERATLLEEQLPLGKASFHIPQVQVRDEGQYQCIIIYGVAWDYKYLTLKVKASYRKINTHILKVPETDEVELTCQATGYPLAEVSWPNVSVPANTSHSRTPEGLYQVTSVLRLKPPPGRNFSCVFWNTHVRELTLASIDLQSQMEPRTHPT

[4] = molecular target: PD-L1 (UniProt Q9NZQ7, construct not described; extracellular domain taken from UniProt features); assay: not stated; PD-L1, PD-L2 or OX40 immobilized
[5] = molecular target: immobilized OX40 (UniProt P43489 29-277, construct not described; extracellular domain taken from UniProt features, immobilized); assay: not stated; PD-L1, PD-L2 or OX40 immobilized
Sequence of UniProt P43489 (P43489 29-277): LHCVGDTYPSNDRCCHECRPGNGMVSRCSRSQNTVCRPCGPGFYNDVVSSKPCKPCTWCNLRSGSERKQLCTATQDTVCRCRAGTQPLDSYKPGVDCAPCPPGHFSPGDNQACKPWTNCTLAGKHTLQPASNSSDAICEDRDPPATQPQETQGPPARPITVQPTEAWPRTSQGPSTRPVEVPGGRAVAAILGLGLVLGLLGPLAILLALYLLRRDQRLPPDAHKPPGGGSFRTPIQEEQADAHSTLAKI

Sequence of CD47 (Q08722 19-323): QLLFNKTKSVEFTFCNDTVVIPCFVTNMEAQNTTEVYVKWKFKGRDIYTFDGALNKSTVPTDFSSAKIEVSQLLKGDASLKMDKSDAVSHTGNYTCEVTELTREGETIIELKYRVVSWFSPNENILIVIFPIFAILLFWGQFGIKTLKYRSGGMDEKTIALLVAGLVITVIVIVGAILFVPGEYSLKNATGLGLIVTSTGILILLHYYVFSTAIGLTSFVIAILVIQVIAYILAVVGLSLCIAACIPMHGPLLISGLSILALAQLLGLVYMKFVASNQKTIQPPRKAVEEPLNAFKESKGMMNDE
Sequence of UniProt P25942 (P25942 21-277): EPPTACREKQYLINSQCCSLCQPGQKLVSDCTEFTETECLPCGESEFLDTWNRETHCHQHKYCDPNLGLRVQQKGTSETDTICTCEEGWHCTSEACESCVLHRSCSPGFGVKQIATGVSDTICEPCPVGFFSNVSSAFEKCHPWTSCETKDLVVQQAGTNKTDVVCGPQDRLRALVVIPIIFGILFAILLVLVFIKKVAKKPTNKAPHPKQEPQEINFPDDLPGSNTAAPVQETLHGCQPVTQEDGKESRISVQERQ
Sequence of PD-L1 (Q9NZQ7 19-290): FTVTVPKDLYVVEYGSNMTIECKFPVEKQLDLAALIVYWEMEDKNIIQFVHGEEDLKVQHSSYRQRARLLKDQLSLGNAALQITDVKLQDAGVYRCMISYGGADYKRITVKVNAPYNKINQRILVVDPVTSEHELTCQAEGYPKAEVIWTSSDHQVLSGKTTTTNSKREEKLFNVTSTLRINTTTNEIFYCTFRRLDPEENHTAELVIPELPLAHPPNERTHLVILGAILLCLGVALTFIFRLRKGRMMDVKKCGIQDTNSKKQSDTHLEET

B1: SIRPα-Fc-CD40L, Agonist Redirected Checkpoint (ARC) fusion protein (Fc fusion, human)
chain: [about 350 residues not given here]HRRLDKIEDERNLHEDFVFMKTIQRCNTGERSLSLLNCEEIKSQFEGFVKDIMLNKEETKKENSFEMQKGDQNPQIAAHVISEASSKTTSVLQWAEKGYYTMSNNLVTLENGKQLTVKRQGLYYIYAQVTFCSNREASSQAPFIASLCLKSPGRFERILLRAANTHSSAKPCGQQSIHLGGVFELQPGASVFVNVTDPSQVSHGTGFTSFGLLKL
notes: SIRPα extracellular domain; CD40L extracellular domain; human and mouse versions were produced; the abstract calls the reported molecule a human fusion protein; not shown: Fc, internal (between the two extracellular domains), kept
[1]
  Kd: 0.756 nM
[2]
  Kd: 3.59 nM

B2: PD1-Fc-OX40L, Agonist Redirected Checkpoint (ARC) fusion protein (Fc fusion)
chain: [about 150 residues not given here]QVSHRYPRIQSIKVQFTEYKKEKGFILTSQKEDEIMKVQNNSVIINCDGFYLISLKGYFSQEVNISLHYQKDEEPLFQLKKVRSVNSLMVASLTYKDKVYLNVTTDNTSLDDFHVNGGELILIHQNPGEFCVL
notes: PD-1 extracellular domain (type I ECD); OX40L extracellular domain (type II ECD); abstract P657; not shown: Fc, internal (between the two extracellular domains), kept
[3]
  Kd: 1.76 nM
[4]
  Kd: 2.08 nM
[5]
  Kd: 0.246 nM
